# Laboratory results published in the supplement of paper PMC8728848.
# This is one part of the list.
# B1: Tamarinin (protein)
# chain: CDDSARAGNIVVYWGQGGSDNSEGSLKEACKSGHYNMIVLQQLIVYDDGRDPDLNLGAHCSDCTKLEEQIKYCQNKDIKILLQIGQVVPTQEDVKDVTKNLSEYLLKNFFSGKSGPLGEVYLNGIDIASVPEGNNLKFDELVEALNDSSTERRIYLSASPLCVYPDYYLNKAIQTEKLDFLFVQFFYQNPCIYTEGNPENLFEAMKTWTKNVPESMIFMALPATPNLDGYIPPRVLNKEILPAVSEASNFAGVMIFDRYFDRFRKYSSKIK
# Assays:
# Experiment in all cases: glycan array binding signal (z-score within array); higher = stronger binding
# Settings in all cases: glycan notation: IUPAC condensed, linker removed
# Neu5Ac(a2-8)Neu5Ac = target: Neu5Ac(a2-8)Neu5Ac
# Method in brief: (§1)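 Columns mapping to the same glycan were averaged after glycan names were converted to IUPAC-condensed notation. The data come from 3228 arrays in the Consortium for Functional Glycomics database, limited to those with an available protein sequence. Binding is reported as a within-array Z-score averaged across arrays of one protein sequence and across linkers.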
# [1] = target: Neu5Ac(a2-8)Neu5Ac(a2-3)Gal(b1-3)GalNAc(b1-4)[Neu5Ac(a2-3)]Gal(b1-4)Glc
# Method in brief: as §1
# [2] = target: Neu5Ac(a2-8)Neu5Ac(a2-3)Gal(b1-3)GalNAc(b1-4)[Neu5Ac(a2-8)Neu5Ac(a2-3)]Gal(b1-4)Glc
# Method in brief: as §1
# [3] = target: Neu5Ac(a2-8)Neu5Ac(a2-3)Gal(b1-4)Glc
# Method in brief: as §1
# [4] = target: Neu5Ac(a2-8)Neu5Ac(a2-3)Gal(b1-4)GlcNAc
# Method in brief: as §1
# [5] = target: Neu5Ac(a2-8)Neu5Ac(a2-3)[Gal(b1-3)GalNAc(b1-4)]Gal(b1-4)Glc
# Method in brief: as §1
# [6] = target: Neu5Ac(a2-8)Neu5Ac(a2-3)[GalNAc(b1-4)]Gal(b1-4)Glc
# Method in brief: as §1
# [7] = target: Neu5Ac(a2-8)Neu5Ac(a2-8)Neu5Ac
# Method in brief: as §1
# [8] = target: Neu5Ac(a2-8)Neu5Ac(a2-8)Neu5Ac(a2-3)Gal(b1-4)Glc
# Method in brief: as §1
# [9] = target: Neu5Ac(a2-8)Neu5Ac(a2-8)Neu5Ac(a2-3)[Gal(b1-3)GalNAc(b1-4)]Gal(b1-4)Glc
# Method in brief: as §1
# [10] = target: Neu5Ac(a2-8)Neu5Ac(a2-8)Neu5Ac(a2-3)[GalNAc(b1-4)]Gal(b1-4)Glc
# Method in brief: as §1
# [11] = target: Neu5Ac(a2-8)Neu5Ac(a2-8)Neu5Ac(a2-8)Neu5Ac(a2-3)[GalNAc(b1-4)]Gal(b1-4)Glc
# Method in brief: as §1
# [12] = target: Neu5Ac(a2-8)Neu5Gc(a2-3)Gal(b1-4)GlcNAc
# Method in brief: as §1
# [13] = target: Neu5Ac(b2-6)Gal(b1-4)GlcNAc
# Method in brief: as §1
# Neu5Ac(b2-6)GalNAc = target: Neu5Ac(b2-6)GalNAc
# Method in brief: as §1
# [14] = target: Neu5Ac9Ac(a2-3)Gal(b1-3)GlcNAc
# Method in brief: as §1
# [15] = target: Neu5Ac9Ac(a2-3)Gal(b1-4)GlcNAc
# Method in brief: as §1
# [16] = target: Neu5Ac9Ac(a2-6)Gal(b1-4)GlcNAc
# Method in brief: as §1
# [17] = target: Neu5Gc(a2-3)Gal(b1-3)GlcNAc
# Method in brief: as §1
# [18] = target: Neu5Gc(a2-3)Gal(b1-3)[Fuc(a1-4)]GlcNAc
# Method in brief: as §1
# Neu5Gc(a2-3)Gal(b1-4)Glc = target: Neu5Gc(a2-3)Gal(b1-4)Glc
# Method in brief: as §1
# [19] = target: Neu5Gc(a2-3)Gal(b1-4)GlcNAc
# Method in brief: as §1
# [20] = target: Neu5Gc(a2-3)Gal(b1-4)GlcNAc(b1-3)Gal(b1-4)GlcNAc(b1-2)Man(a1-3)[Neu5Gc(a2-3)Gal(b1-4)GlcNAc(b1-3)Gal(b1-4)GlcNAc(b1-2)Man(a1-6)]Man(b1-4)GlcNAc(b1-4)GlcNAc
# Method in brief: as §1
# [21] = target: Neu5Gc(a2-3)Gal(b1-4)[Fuc(a1-3)]GlcNAc
# Method in brief: as §1
# [22] = target: Neu5Gc(a2-6)Gal(b1-4)GlcNAc
# Method in brief: as §1
# Neu5Gc(a2-6)GalNAc = target: Neu5Gc(a2-6)GalNAc
# Method in brief: as §1
# [23] = target: Neu5Gc(a2-8)Neu5Ac(a2-3)Gal(b1-4)GlcNAc
# Method in brief: as §1
# [24] = target: Neu5Gc(a2-8)Neu5Gc(a2-3)Gal(b1-4)GlcNAc
# Method in brief: as §1
# [25] = target: Neu5Gc(a2-8)Neu5Gc(a2-3)Gal(b1-4)GlcNAc(b1-3)Gal(b1-4)GlcNAc
# Method in brief: as §1
# [26] = target: Neu5Gc(a2-8)Neu5Gc(a2-6)Gal(b1-4)GlcNAc
# Method in brief: as §1
# [27] = target: Neu5Gc(b2-6)Gal(b1-4)GlcNAc
# Method in brief: as §1
binder,measurement,setting,value
B1,glycan array binding signal (z-score),Neu5Ac(a2-8)Neu5Ac,-0.281
same,glycan array binding signal (z-score),[1],0.219
same,glycan array binding signal (z-score),[2],-0.156
same,glycan array binding signal (z-score),[3],-0.395
same,glycan array binding signal (z-score),[4],-0.453
same,glycan array binding signal (z-score),[5],-0.04
same,glycan array binding signal (z-score),[6],-0.42
same,glycan array binding signal (z-score),[7],-0.406
same,glycan array binding signal (z-score),[8],-0.446
same,glycan array binding signal (z-score),[9],-0.059
same,glycan array binding signal (z-score),[10],-0.405
same,glycan array binding signal (z-score),[11],-0.394
same,glycan array binding signal (z-score),[12],-0.457
same,glycan array binding signal (z-score),[13],-0.463
same,glycan array binding signal (z-score),Neu5Ac(b2-6)GalNAc,-0.417
same,glycan array binding signal (z-score),[14],-0.189
same,glycan array binding signal (z-score),[15],-0.335
same,glycan array binding signal (z-score),[16],-0.342
same,glycan array binding signal (z-score),[17],0.082
same,glycan array binding signal (z-score),[18],-0.116
same,glycan array binding signal (z-score),Neu5Gc(a2-3)Gal(b1-4)Glc,0.043
same,glycan array binding signal (z-score),[19],-0.078
same,glycan array binding signal (z-score),[20],-0.36
same,glycan array binding signal (z-score),[21],-0.286
same,glycan array binding signal (z-score),[22],-0.203
same,glycan array binding signal (z-score),Neu5Gc(a2-6)GalNAc,-0.025
same,glycan array binding signal (z-score),[23],-0.475
same,glycan array binding signal (z-score),[24],-0.479
same,glycan array binding signal (z-score),[25],-0.41
same,glycan array binding signal (z-score),[26],-0.477
same,glycan array binding signal (z-score),[27],-0.329
